# The supplement of paper PMC4604168 (melanoma cell lines)
# Some of the results follow. Many values rest on one well or one pass, so single values are uncertain.
# Test system: SkMel5
# Assay: cell count relative to DMSO control; melanoma cells; higher = more viable cells
# Conditions: library dose: low library concentration; 72 h
# 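Further: cell number obtained by counting DAPI-stained nuclei in high-throughput microscope images with image analysis software, screen run in 1,536-well plates.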
row,SMILES,cell count
1,"Nc1nc(F)nc2c1ncn2[C@@H]1O[C@H](CO)[C@@H](O)[C@@H]1O [fludarabine] + Cc1cc([N+](=O)[O-])ccc1NS(=O)(=O)c1cc(Cl)ccc1Cl [FH535] (first compound 0.2 µM, partner dose 1 µM)",67.8%
2,"CC(=O)O[C@@]12CO[C@@H]1C[C@H](O)[C@@]1(C)C(=O)[C@H](O)C3=C(C)[C@@H](OC(=O)[C@H](O)[C@@H](NC(=O)OC(C)(C)C)c4ccccc4)C[C@@](O)([C@@H](OC(=O)c4ccccc4)[C@H]21)C3(C)C [Docetaxel] + O=S(=O)(c1ccccc1)N(CC(F)(F)F)c1ccc(C(O)(C(F)(F)F)C(F)(F)F)cc1 [T0901317] (first compound 0.0001 µM, partner dose 1.4 µM)",73.5%
3,"CC(=O)c1c(C)c2cnc(Nc3ccc(N4CCNCC4)cn3)nc2n(C2CCCC2)c1=O [palbociclib] + CC(C)(C)c1cnc(CSc2cnc(NC(=O)C3CCNCC3)s2)o1 [SNS-032] (first compound 0.04 µM, partner dose 0.01 µM)",81.5%
4,"CC(=O)O[C@@]12CO[C@@H]1C[C@H](O)[C@@]1(C)C(=O)[C@H](O)C3=C(C)[C@@H](OC(=O)[C@H](O)[C@@H](NC(=O)OC(C)(C)C)c4ccccc4)C[C@@](O)([C@@H](OC(=O)c4ccccc4)[C@H]21)C3(C)C [Docetaxel] + CO[C@@H]1[C@H](N(C)C(=O)c2ccccc2)C[C@H]2O[C@]1(C)n1c3ccccc3c3c4c(c5c6ccccc6n2c5c31)C(=O)NC4 [Midostaurin] (first compound 0.0001 µM, partner dose 0.08 µM)",63.9%
5,"Nc1nc(F)nc2c1ncn2[C@@H]1O[C@H](CO)[C@@H](O)[C@@H]1O [fludarabine] + COc1ccc2c(c1)CCC1C2CCC2(C)C(NCCCCCCN3C(=O)C=CC3=O)CCC12 [U73122] (first compound 0.2 µM, partner dose 0.4 µM)",60.2%
6,"Nc1ccn([C@@H]2O[C@H](CO)[C@@H](O)C2(F)F)c(=O)n1 [gemcitabine] + O=c1cc(-c2cccc3c2Sc2ccccc2S3)oc(N2CCOCC2)c1 [KU55933] (first compound 0.0004 µM, partner dose 1 µM)",110%
7,"CC(=O)c1c(C)c2cnc(Nc3ccc(N4CCNCC4)cn3)nc2n(C2CCCC2)c1=O [palbociclib] + CO[C@@H]1[C@H](N(C)C(=O)c2ccccc2)C[C@H]2O[C@]1(C)n1c3ccccc3c3c4c(c5c6ccccc6n2c5c31)C(=O)NC4 [Midostaurin] (first compound 0.04 µM, partner dose 0.08 µM)",64.1%
8,"Nc1ncn([C@H]2C[C@H](O)[C@@H](CO)O2)c(=O)n1 [decitabine] + CO[C@@H]1[C@H](N(C)C(=O)c2ccccc2)C[C@H]2O[C@]1(C)n1c3ccccc3c3c4c(c5c6ccccc6n2c5c31)C(=O)NC4 [Midostaurin] (first compound 0.1 µM, partner dose 0.08 µM)",100%
9,"CC(=O)c1c(C)c2cnc(Nc3ccc(N4CCNCC4)cn3)nc2n(C2CCCC2)c1=O [palbociclib] + O=C(O)C(=O)Nc1sc2c(c1C(=O)O)CCNC2 [TCS401] (first compound 0.04 µM, partner dose 1.66667 µM)",71.9%
10,"Nc1nc(F)nc2c1ncn2[C@@H]1O[C@H](CO)[C@@H](O)[C@@H]1O [fludarabine] + CN(C)S(=O)(=O)c1ccc2c(c1)/C(=C/c1cc3c([nH]1)CCCC3)C(=O)N2 [SU6656] (first compound 0.2 µM, partner dose 0.4 µM)",59.9%
11,"Nc1nc(F)nc2c1ncn2[C@@H]1O[C@H](CO)[C@@H](O)[C@@H]1O [fludarabine] + Cc1ccc(NC(=O)c2cccc(N(C)C)c2)cc1NC(=O)c1ccc(O)cc1 [ZM336372] (first compound 0.2 µM, partner dose 2 µM)",59.3%
12,"Nc1ncn([C@H]2C[C@H](O)[C@@H](CO)O2)c(=O)n1 [decitabine] + c1cc(-c2cnn3cc(-c4ccc(OCCN5CCCCC5)cc4)cnc23)ccn1 [Dorsomorphin] (first compound 0.1 µM, partner dose 0.4 µM)",114%
13,"Nc1nc(F)nc2c1ncn2[C@@H]1O[C@H](CO)[C@@H](O)[C@@H]1O [fludarabine] + COc1cc2ncnc(Nc3ccc(Oc4ccccc4)cc3)c2cc1OC [SrcI1] (first compound 0.2 µM, partner dose 2 µM)",69.9%
14,"Nc1ccn([C@@H]2O[C@H](CO)[C@@H](O)C2(F)F)c(=O)n1 [gemcitabine] + O=C(Nc1cccc(Cl)c1)Nc1ncc(CCNc2ncnc3ccsc23)s1 [SNS314] (first compound 0.0004 µM, partner dose 0.0008 µM)",104%
15,"Nc1nc(F)nc2c1ncn2[C@@H]1O[C@H](CO)[C@@H](O)[C@@H]1O [fludarabine] + COc1cc(N2CCC(N3CCN(C)CC3)CC2)ccc1Nc1ncc(Cl)c(Nc2ccccc2S(=O)(=O)C(C)C)n1 [NVP-TAE684] (first compound 0.2 µM, partner dose 0.08 µM)",48.2%
16,"CC(=O)c1c(C)c2cnc(Nc3ccc(N4CCNCC4)cn3)nc2n(C2CCCC2)c1=O [palbociclib] + C=CCn1c(=O)c2cnc(Nc3ccc(N4CCN(C)CC4)cc3)nc2n1-c1cccc(C(C)(C)O)n1 [MK1775] (first compound 0.04 µM, partner dose 0.02 µM)",64.8%
